The other results are listed elsewhere or left out.
target: T1, RBFOX1 RRM (Homo sapiens) (UniProt Q9NWB1); assay: EMSA; conditions: HiTS-Eq, 1 nM pool, 10 min; buffer printed only for the single-RNA assays: 10 mM Tris pH 7.5, 150 mM NaCl, 3.4 mM EDTA, 0.001% NP-40, 30 C
T1 sequence: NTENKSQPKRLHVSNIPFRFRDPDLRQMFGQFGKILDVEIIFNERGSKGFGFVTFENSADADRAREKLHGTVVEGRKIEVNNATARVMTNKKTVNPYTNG

Sequence | binding signal (KA relative to UGCAUGU)
GGGAGACCGGAAUUCAGAUUGUCCGCUCCCUUUAAAUCCCGUCGUAGCCACCA / CAATCTGAATTCCGGTCTCCC / TGGTGGCTACGACGGGATT | 0.00639
GGGAGACCGGAAUUCAGAUUGUCCCCCCCCAUUAAAUCCCGUCGUAGCCACCA / CAATCTGAATTCCGGTCTCCC / TGGTGGCTACGACGGGATT | 0.0067
GGGAGACCGGAAUUCAGAUUGUCCACCUCCCUUAAAUCCCGUCGUAGCCACCA / CAATCTGAATTCCGGTCTCCC / TGGTGGCTACGACGGGATT | 0.00375
GGGAGACCGGAAUUCAGAUUGUCCGGCUCCUUUAAAUCCCGUCGUAGCCACCA / CAATCTGAATTCCGGTCTCCC / TGGTGGCTACGACGGGATT | 0.0115
GGGAGACCGGAAUUCAGAUUGUCCCCACCUCUUAAAUCCCGUCGUAGCCACCA / CAATCTGAATTCCGGTCTCCC / TGGTGGCTACGACGGGATT | 0.00505
GGGAGACCGGAAUUCAGAUUGUCCCCCCCUGUUAAAUCCCGUCGUAGCCACCA / CAATCTGAATTCCGGTCTCCC / TGGTGGCTACGACGGGATT | 0.0041
GGGAGACCGGAAUUCAGAUUGUCCUUCUCCCUUAAAUCCCGUCGUAGCCACCA / CAATCTGAATTCCGGTCTCCC / TGGTGGCTACGACGGGATT | 0.015
GGGAGACCGGAAUUCAGAUUGUCCGGCUCCGUUAAAUCCCGUCGUAGCCACCA / CAATCTGAATTCCGGTCTCCC / TGGTGGCTACGACGGGATT | 0.038
GGGAGACCGGAAUUCAGAUUGUCCGGUCCGAUUAAAUCCCGUCGUAGCCACCA / CAATCTGAATTCCGGTCTCCC / TGGTGGCTACGACGGGATT | 0.00302
GGGAGACCGGAAUUCAGAUUGUCCGCUCCCCUUAAAUCCCGUCGUAGCCACCA / CAATCTGAATTCCGGTCTCCC / TGGTGGCTACGACGGGATT | 0.00879
GGGAGACCGGAAUUCAGAUUGUCCGGGCUCCUUAAAUCCCGUCGUAGCCACCA / CAATCTGAATTCCGGTCTCCC / TGGTGGCTACGACGGGATT | 0.257
GGGAGACCGGAAUUCAGAUUGUCCCCCCGACUUAAAUCCCGUCGUAGCCACCA / CAATCTGAATTCCGGTCTCCC / TGGTGGCTACGACGGGATT | 0.0111
GGGAGACCGGAAUUCAGAUUGUCCCCCCGCCUUAAAUCCCGUCGUAGCCACCA / CAATCTGAATTCCGGTCTCCC / TGGTGGCTACGACGGGATT | 0.004
GGGAGACCGGAAUUCAGAUUGUCCCCGGUCCUUAAAUCCCGUCGUAGCCACCA / CAATCTGAATTCCGGTCTCCC / TGGTGGCTACGACGGGATT | 0.0299
GGGAGACCGGAAUUCAGAUUGUCCCCCUUCCUUAAAUCCCGUCGUAGCCACCA / CAATCTGAATTCCGGTCTCCC / TGGTGGCTACGACGGGATT | 0.00606
GGGAGACCGGAAUUCAGAUUGUCCGGUUCUCUUAAAUCCCGUCGUAGCCACCA / CAATCTGAATTCCGGTCTCCC / TGGTGGCTACGACGGGATT | 0.0401
GGGAGACCGGAAUUCAGAUUGUCCGGUCCGCUUAAAUCCCGUCGUAGCCACCA / CAATCTGAATTCCGGTCTCCC / TGGTGGCTACGACGGGATT | 0.0153
GGGAGACCGGAAUUCAGAUUGUCCGGCCCCGUUAAAUCCCGUCGUAGCCACCA / CAATCTGAATTCCGGTCTCCC / TGGTGGCTACGACGGGATT | 0.00868
GGGAGACCGGAAUUCAGAUUGUCCGGAAUCCUUAAAUCCCGUCGUAGCCACCA / CAATCTGAATTCCGGTCTCCC / TGGTGGCTACGACGGGATT | 0.0219
GGGAGACCGGAAUUCAGAUUGUCCCCCACACUUAAAUCCCGUCGUAGCCACCA / CAATCTGAATTCCGGTCTCCC / TGGTGGCTACGACGGGATT | 0.00801
GGGAGACCGGAAUUCAGAUUGUCCCCUCCCCUUAAAUCCCGUCGUAGCCACCA / CAATCTGAATTCCGGTCTCCC / TGGTGGCTACGACGGGATT | 0.000225
GGGAGACCGGAAUUCAGAUUGUCCGGCACCCUUAAAUCCCGUCGUAGCCACCA / CAATCTGAATTCCGGTCTCCC / TGGTGGCTACGACGGGATT | 0.00858
GGGAGACCGGAAUUCAGAUUGUCCGGUCUACUUAAAUCCCGUCGUAGCCACCA / CAATCTGAATTCCGGTCTCCC / TGGTGGCTACGACGGGATT | 0.00661
GGGAGACCGGAAUUCAGAUUGUCCUGUCUCCUUAAAUCCCGUCGUAGCCACCA / CAATCTGAATTCCGGTCTCCC / TGGTGGCTACGACGGGATT | 0.0254

— article PMC9911399
